# Results reported in PubChem BioAssay (Tox21).
# Where “and” joins values, the source holds several entries; their conditions need not be identical. Equal values may be shown once. Inconclusive means that the source gave no clear call. Such entries were picked first, then a sample of the others. For some of these results: Where the call is inconclusive, the potency comes from a doubtful curve fit. The source holds several records for some structures; these can differ, active in one and inactive in another. Calls of active or inactive are those of the source. Unless noted, calls follow the shape of the dose curve; as a rule, active = well fitted curve in the direction sought with a large enough effect in the repeat runs; inconclusive = weak or mixed curves; inactive = no such curve, though single readings can be large; an effect the other way counts as inactive or inconclusive.
# Columns and labels:
# [1] = qHTS assay to identify small molecule that activate the aryl hydrocarbon receptor (AhR) signaling pathway - cell viability counter screen (AID 743086); also: nearly all actives have a fitted effect of over 45% in size; also: potency is read from the fitted curve at half-maximal effect;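 as to viability change, negative = cytotoxic: HepG2 liver cells carrying the AhR DRE luciferase reporter; % is scaled to controls: 0 for no effect and ±100 for the full control effect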
# Procedure, shortened: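 HepG2-AhR-luc (HG2L7.5c1) cells, 4000/well, were preincubated 5 h at 37C, exposed to compound in qHTS format for 24 hr at 37C, then given CellTiter-Fluor for 30 min; viability was read as fluorescence in the reporter wells.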
# [2] = qHTS assay for small molecule activators of the heat shock response signaling pathway - cell viability counter screen (AID 743209); details: HSE-bla HeLa viability, CellTiter-Glo luminescence, 5 h; activity change, negative = cytotoxicity: at 62.6 µM (top of the series) unless noted; also: potency is read from the fitted curve at half-maximal effect; nearly all actives have a fitted effect of over 50% in size
# Procedure, shortened: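 Readout: CellTiter-Glo luminescence, 30 min at room temperature. System: HSE-bla HeLa cells, 1500/well, plated overnight. Treatment: compounds in DMSO, 5 h at 37 C.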
# [3] = qHTS assay for small molecule activators of the heat shock response signaling pathway (AID 743210; active = well fitted activation curve with a large enough effect in the signal ratio in the repeat runs, with a control signal flat, not every such curve was filed as active; inconclusive = weak or mixed curves; the % refers to the signal ratio; also: potency is read from the fitted curve at half-maximal effect); details: HeLa HSE-bla reporter, beta-lactamase ratio, 5 h; activation: at 62.6 µM (top of the series)
# Procedure, shortened: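 HSE-bla HeLa cells (beta-lactamase reporter under heat shock response elements) were exposed to compounds for 5 h at 37 C, then loaded with LiveBLAzer B/G FRET substrate for 2.5 h at room temperature before fluorescence reading.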
# [4] = qHTS assay to identify small molecule antagonists of the peroxisome proliferator-activated receptor delta (PPARd) signaling pathway - cell viability counter screen (AID 743213); details: PPARd-bla HEK293H viability, CellTiter-Glo luminescence, 17 h; viability change, negative = cytotoxic: at 62 µM (top of the series) unless noted; also: potency is read from the fitted curve at half-maximal effect; nearly all actives have a fitted effect of over 50% in size
# Procedure, shortened: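 Cytotoxicity counter screen: CellTiter-Glo luminescence read 30 min after addition, in the same wells as the reporter assay. There, PPARd UAS-bla HEK293H cells (3000/well) were treated 17 h at 37 C with compound and 300 nM L165041.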
# [5] = qHTS assay to identify small molecule agonists of the farnesoid-X-receptor (FXR) signaling pathway - cell viability counter screen (AID 743218); details: FXR-bla HEK293T viability, CellTiter-Glo luminescence, 16 h; viability change, negative = cytotoxic: at 62.6 µM (top of the series) unless noted; also: potency is read from the fitted curve at half-maximal effect; nearly all actives have a fitted effect of over 45% in size
# Procedure, shortened: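 Parallel cytotoxicity test: compound-treated (16 h, 37 C) HEK 293T FXR-bla reporter cells were lysed with CellTiter-Glo and luminescence recorded.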
# [6] = target: Vitamin D3 receptor (Homo sapiens) (UniProt P11473); assay: qHTS assay to identify small molecule agonists of the vitamin D receptor (VDR) signaling pathway (AID 743222; calls by dose curve; also: potency is read from the fitted curve at half-maximal effect); details: HEK293T VDR-UAS-bla, beta-lactamase FRET ratio, 16 h; activation: at 63.5 µM (top of the series) unless noted
# Procedure, shortened: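 In VDR-bla cells, compound-induced beta-lactamase expression is quantified by FRET substrate fluorescence. Treatment lasts 16 h at 37C; substrate develops 2 h at room temperature.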
# [7] = target: Vitamin D3 receptor (Homo sapiens) (UniProt P11473); assay: qHTS assay to identify small molecule antagonists of the vitamin D receptor (VDR) signaling pathway (AID 743223; active = well fitted inhibition curve with a large enough effect in the signal ratio in the repeat runs, not every such curve was filed as active; inconclusive = weak or mixed curves, or effect the other way; inactive = no such curve, though single readings can be large or run the other way; the % refers to the signal ratio; also: potency is read from the fitted curve at half-maximal effect); details: VDR-UAS-bla HEK293T, beta-lactamase FRET ratio, 16 h; activity change, negative = inhibition: at 61 µM (top of the series) unless noted
# Procedure, shortened: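 Beta-lactamase activity in VDR-bla cells is measured by FRET substrate fluorescence (2 h, room temperature) after cells spend 16 h at 37C with test compound and 3 nM final 1alpha,25-dihydroxyvitamin D3.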
# [8] = qHTS assay to identify small molecule antagonists of the vitamin D receptor (VDR) signaling pathway - cell viability counter screen (AID 743225); details: VDR-bla HEK293T viability, CellTiter-Glo luminescence, 16 h; viability change, negative = cytotoxic: at 61 µM (top of the series) unless noted; also: potency is read from the fitted curve at half-maximal effect; nearly all actives have a fitted effect of over 50% in size
# Procedure, shortened: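 In this counter screen, VDR-bla HEK 293T cells receive test compound plus 3 nM final calcitriol for 16 h at 37C. Room-temperature steps of 2 h with the beta-lactamase substrate, then 30 min with CellTiter-Glo, precede the luminescence read.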
# [9] = target: Peroxisome proliferator-activated receptor gamma (Homo sapiens) (UniProt P37231); assay: qHTS assay to identify small molecule agonists of the peroxisome proliferator-activated receptor gamma (PPARg) signaling pathway (AID 743094; active = well fitted activation curve with a large enough effect in the signal ratio in the repeat runs, not every such curve was filed as active; inconclusive = weak or mixed curves, or effect the other way; inactive = no such curve, though single readings can be large or run the other way; the % refers to the signal ratio; also: potency is read from the fitted curve at half-maximal effect; as to activation: % is scaled to controls: 0 for no effect and ±100 for the full control effect); details: HEK293H PPARg-UAS-bla, beta-lactamase FRET ratio, 17 h; activation: at 57 µM (top of the series) unless noted
# Procedure, shortened: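 Compounds dissolved in DMSO were added to PPARg UAS-bla HEK293H cells for 17 h at 37C, and reporter expression was quantified by fluorescence intensity after 1 h with LiveBLAzer B/G FRET substrate.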
# [10] = target: Peroxisome proliferator-activated receptor gamma (Homo sapiens) (UniProt P37231); assay: qHTS assay to identify small molecule antagonists of the peroxisome proliferator-activated receptor gamma (PPARg) signaling pathway (AID 743191; calls by dose curve; also: nearly all actives have a fitted effect of over 30% in size; also: potency is read from the fitted curve at half-maximal effect; as to ratio activity, negative = inhibition: % is scaled to controls: 0 for no effect and ±100 for the full control effect); details: HEK293H PPARg-UAS-bla, beta-lactamase ratio, antagonist, 17 h; ratio activity, negative = inhibition: at 62.6 µM (top of the series) unless noted
# Procedure, shortened: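 GeneBLAzer PPARg UAS-bla HEK293H cells carrying a UAS-driven beta-lactamase reporter were plated at 3000 cells/well, preincubated 5 h at 37C, then given compound for 17 h at 37C; LiveBLAzer B/G FRET substrate was read after 1 h at room temperature.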
# [11] = qHTS assay to identify small molecule antagonists of the peroxisome proliferator-activated receptor gamma (PPARg) signaling pathway - cell viability counter screen (AID 743194); details: PPARg-bla HEK293H viability, CellTiter-Glo luminescence, 17 h, co-treated with 50 nM rosiglitazone; activity change, negative = cytotoxicity: at 62.6 µM (top of the series) unless noted; also: potency is read from the fitted curve at half-maximal effect; nearly all actives have a fitted effect of over 55% in size
# Procedure, shortened: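 PPARg-UAS-bla HEK293H cells were plated, rested 5 h at 37 C, then treated with compounds plus rosiglitazone (50 nM final) for 17 h at 37 C; viability was then read by CellTiter-Glo luminescence after 30 min at room temperature.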
# [12] = qHTS assay for small molecule agonists of the antioxidant response element (ARE) signaling pathway (AID 743202; active = well fitted activation curve with a large enough effect in the signal ratio in the repeat runs, not every such curve was filed as active; inconclusive = weak or mixed curves, or effect the other way; inactive = no such curve, though single readings can be large or run the other way; the % refers to the signal ratio; also: potency is read from the fitted curve at half-maximal effect); details: HepG2 ARE-bla reporter, beta-lactamase FRET, 16 h; activation: at 73.3 µM (top of the series) unless noted
# Procedure, shortened: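 Read-out: LiveBLAzer B/G FRET substrate fluorescence after 2 h at room temperature, following 16 h compound treatment at 37 C of HepG2 cells carrying an ARE-driven beta-lactamase reporter.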
# [13] = qHTS assay to identify small molecule agonists of the peroxisome proliferator-activated receptor delta (PPARd) signaling pathway - cell viability counter screen (AID 743211); details: PPARd-bla HEK293H viability, CellTiter-Glo luminescence, 17 h; activity change, negative = cytotoxicity: at 62.6 µM (top of the series); also: potency is read from the fitted curve at half-maximal effect; nearly all actives have a fitted effect of over 55% in size
# Procedure, shortened: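 Following 5 h plating at 37 C and 5% CO2, PPARd UAS-bla HEK293H cells took up test compounds for 17 h. Viability was quantified by luminescence 30 min after CellTiter-Glo addition at room temperature.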
# [14] = target: Peroxisome proliferator-activated receptor delta (Homo sapiens) (UniProt Q03181); assay: qHTS assay to identify small molecule agonists of the peroxisome proliferator-activated receptor delta (PPARd) signaling pathway (AID 743212; calls by dose curve; also: % is scaled to controls: 0 for no effect and ±100 for the full control effect); details: HEK293H PPARd-UAS-bla, beta-lactamase FRET ratio, 17 h; activation: at 62.6 µM (top of the series) unless noted
# Procedure, shortened: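 GeneBLAzer PPARd UAS-bla HEK293H cells (beta-lactamase reporter under UAS control), plated and rested 5 h at 37 C, then exposed to compounds in DMSO at 37 C; LiveBLAzer B/G FRET substrate added, 2 h room temperature, fluorescence read.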
# [15] = target: Peroxisome proliferator-activated receptor delta (Homo sapiens) (UniProt Q03181); assay: qHTS assay to identify small molecule antagonists of the peroxisome proliferator-activated receptor delta (PPARd) signaling pathway (AID 743215; active = well fitted inhibition curve with a large enough effect in the signal ratio in the repeat runs, not every such curve was filed as active; inconclusive = weak or mixed curves, or effect the other way; inactive = no such curve, though single readings can be large or run the other way; the % refers to the signal ratio;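 also: cells stimulated with agonist L165041 at 300 nM final during compound exposure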; also: potency is read from the fitted curve at half-maximal effect); details: HEK293H PPARd-UAS-bla, beta-lactamase FRET ratio, antagonist, 17 h; ratio activity, negative = inhibition: at 62 µM (top of the series) unless noted
# Procedure, shortened: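 HEK293H UAS-bla, PPARd; agonist L165041 300 nM final with cpd in DMSO; 37 C 17 h; FRET substrate, RT 2 h; fluorescence intensity.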
# [16] = target: Bile acid receptor (Homo sapiens) (UniProt Q96RI1); assay: qHTS assay to identify small molecule antagonists of the farnesoid-X-receptor (FXR) signaling pathway (AID 743217; active = well fitted inhibition curve with a large enough effect in the signal ratio in the repeat runs, not every such curve was filed as active; inconclusive = weak or mixed curves, or effect the other way; inactive = no such curve, though single readings can be large or run the other way; the % refers to the signal ratio; also: potency is read from the fitted curve at half-maximal effect); details: HEK293T FXR-UAS-bla, beta-lactamase ratio, CDCA-stimulated, 16 h; activity change, negative = inhibition: at 62.6 µM (top of the series) unless noted
# Procedure, shortened: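 GeneBLAzer FXR-UAS-bla HEK 293T, CDCA-stimulated (50 uM final). Compound treatment 16 h, 37 °C. Detection: beta-lactamase cleavage of B/G FRET substrate, fluorescence.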
# Tags tell the direction and shape of the fitted curve or compound fluorescence and quenching.
# Sequence of UniProt P11473 (P11473 whole entry, looked up): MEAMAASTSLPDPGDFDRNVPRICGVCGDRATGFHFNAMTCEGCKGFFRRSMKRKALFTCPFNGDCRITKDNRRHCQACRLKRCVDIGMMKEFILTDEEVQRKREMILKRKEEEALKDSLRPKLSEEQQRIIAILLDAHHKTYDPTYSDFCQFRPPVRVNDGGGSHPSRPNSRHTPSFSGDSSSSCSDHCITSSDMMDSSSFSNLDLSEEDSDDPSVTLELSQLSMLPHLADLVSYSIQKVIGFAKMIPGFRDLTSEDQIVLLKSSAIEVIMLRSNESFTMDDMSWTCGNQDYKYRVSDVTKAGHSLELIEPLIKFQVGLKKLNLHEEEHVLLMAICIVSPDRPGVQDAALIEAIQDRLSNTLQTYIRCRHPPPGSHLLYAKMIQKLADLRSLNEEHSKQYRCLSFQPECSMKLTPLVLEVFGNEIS
# Sequence of UniProt P37231 (P37231 whole entry, looked up): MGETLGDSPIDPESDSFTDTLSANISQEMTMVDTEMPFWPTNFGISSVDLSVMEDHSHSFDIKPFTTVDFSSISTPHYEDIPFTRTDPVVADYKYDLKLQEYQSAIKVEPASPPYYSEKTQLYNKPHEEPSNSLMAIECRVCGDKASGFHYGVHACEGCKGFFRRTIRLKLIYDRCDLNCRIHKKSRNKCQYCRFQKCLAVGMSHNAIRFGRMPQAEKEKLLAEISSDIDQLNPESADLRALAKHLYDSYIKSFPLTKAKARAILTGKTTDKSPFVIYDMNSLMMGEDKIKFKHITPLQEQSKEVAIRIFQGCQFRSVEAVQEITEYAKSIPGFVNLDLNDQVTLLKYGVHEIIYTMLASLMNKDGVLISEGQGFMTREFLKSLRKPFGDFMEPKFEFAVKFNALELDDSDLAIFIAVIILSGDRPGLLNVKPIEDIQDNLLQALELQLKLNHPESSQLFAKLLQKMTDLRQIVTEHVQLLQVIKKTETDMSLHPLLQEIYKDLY
# Sequence of UniProt Q03181 (Q03181 whole entry, looked up): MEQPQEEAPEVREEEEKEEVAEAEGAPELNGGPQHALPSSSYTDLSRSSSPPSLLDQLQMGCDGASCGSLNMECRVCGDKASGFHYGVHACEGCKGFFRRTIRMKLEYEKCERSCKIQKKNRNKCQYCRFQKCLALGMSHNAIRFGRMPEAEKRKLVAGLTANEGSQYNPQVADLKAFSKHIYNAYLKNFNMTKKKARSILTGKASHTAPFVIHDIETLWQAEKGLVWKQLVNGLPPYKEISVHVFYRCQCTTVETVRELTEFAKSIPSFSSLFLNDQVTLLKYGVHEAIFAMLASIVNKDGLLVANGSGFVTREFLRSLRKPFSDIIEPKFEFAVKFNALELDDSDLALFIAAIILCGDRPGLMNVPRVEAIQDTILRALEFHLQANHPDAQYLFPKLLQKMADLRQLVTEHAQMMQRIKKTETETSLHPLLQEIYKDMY
# Sequence of UniProt Q96RI1 (Q96RI1 whole entry, looked up): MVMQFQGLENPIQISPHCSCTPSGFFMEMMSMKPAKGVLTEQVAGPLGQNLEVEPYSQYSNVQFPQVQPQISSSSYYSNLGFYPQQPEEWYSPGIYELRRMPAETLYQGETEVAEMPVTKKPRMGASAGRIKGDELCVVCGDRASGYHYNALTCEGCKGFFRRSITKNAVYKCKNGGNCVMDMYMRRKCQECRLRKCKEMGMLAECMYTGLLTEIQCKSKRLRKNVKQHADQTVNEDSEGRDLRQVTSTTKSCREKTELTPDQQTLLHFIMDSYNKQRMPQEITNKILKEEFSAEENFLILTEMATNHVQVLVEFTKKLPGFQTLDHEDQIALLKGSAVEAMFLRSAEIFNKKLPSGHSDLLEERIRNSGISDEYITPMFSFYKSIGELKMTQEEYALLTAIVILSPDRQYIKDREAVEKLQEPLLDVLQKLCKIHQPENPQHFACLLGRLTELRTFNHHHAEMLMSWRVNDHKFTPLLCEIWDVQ
Compound,Potency [1],Potency [2],Potency [3],Potency [4],Potency [5],Potency [6],Potency [7],Potency [8],Potency [9],activation [9],Potency [10],"ratio activity, negative = inhibition [10]",Potency [11],Potency [12],Potency [13],activation [14],Potency [15],"ratio activity, negative = inhibition [15]",Potency [16]
CN(C)c1ccc(C(=C2C=CC(=[N+](C)C)C=C2)c2ccccc2)cc1,inactive and active: 1.93 µM,"inconclusive: 155 nM [cytotoxic, full curve, poor fit] and inconclusive: 531 nM [cytotoxic, full curve]",inconclusive: 11.8 µM and inconclusive: 13.3 µM,active: 490 nM and active: 3.35 µM,active: 437 nM and active: 2.37 µM,"inconclusive: 347 nM [rising, partial curve] and inconclusive: 3.76 µM [rising, partial curve]","inconclusive: 692 nM [rising, full curve] and inconclusive: 3.38 µM [rising, full curve]",active: 490 nM and active: 3.38 µM,–,–,–,–,–,–,–,–,–,–,–
O=C(Nc1ccc(Cl)cc1)Nc1ccc(Cl)c(Cl)c1,–,–,inconclusive: 6.53 µM,–,"inconclusive: 244 nM [cytotoxic, full curve, poor fit] and active: 2.66 µM",–,–,"inconclusive: 487 nM [cytotoxic, full curve, poor fit] and inconclusive: 2.39 µM [cytotoxic, full curve, poor fit]","inconclusive: 61.6 µM [falling, partial curve, poor fit]",inconclusive: -11.7%,"inconclusive: 6.68 µM [inhibitor, single point]",inconclusive: -30.1% and inconclusive: -0.647%,active: 4.34 µM and active: 4.9 µM and active: 6.68 µM,"inconclusive: 6.82 µM [rising, full curve] and inconclusive: 7.7 µM [rising, full curve] and inconclusive: 13.3 µM [rising, full curve]","inconclusive: 487 nM [cytotoxic, full curve] and inconclusive: 616 nM [cytotoxic] and inconclusive: 2.66 µM [cytotoxic]",inconclusive: 9.24% and inconclusive: -2.45%,"active: 19.4 µM and inconclusive: 7.76 µM [inhibitor, full curve]",inconclusive: -54.3%,"inconclusive: 17.3 µM [inhibitor, full curve] and inconclusive: 6.16 µM [inhibitor, full curve] and inconclusive: 11.9 µM"
